Test results: ChEMBL document CHEMBL4888484, “Replenishing the malaria drug discovery pipeline: Screening and hit evaluation of the MMV Hit Generation Library 1 (HGL1) against asexual blood stage Plasmodium falciparum ,using a nano luciferase reporter read-out” (2022)
The campaign covered roughly 150,000 compounds. About 540 (0.36%) showed an effect of 50% or more. Some of the results follow.

The compounds below were run on Plasmodium falciparum (assay: Primary screen in NF54 nanoGlo assay, in single point, at 2uM, 72h; a lower Z score goes with more inhibition). Settings: timepoint 72 hour.
Type: functional, Erythrocyte

Point of comparison: `Cc1cccc(-c2ccc(C(=O)NCc3nncn3C)c(=O)[nH]2)c1`, “% Inhibition” value 2%. Against it:
- CCOC(=O)C1(C[C@H]2CCCCO2)CCN(S(=O)(=O)c2ccc(C)cc2C)CC1 — lower, -33%
- CCCN(CCC)S(=O)(=O)c1cccs1 — higher, 10%
- Cc1noc2ncnc(N3Cc4ccccc4[C@@H](O)C3)c12 — lower, -4%
- C[C@@H](C(=O)NC1CCCC1)N(C)Cc1ccc2c(c1)OCCO2 — lower, 1%
- Cc1cncc(NC(=O)C(=O)NCC2CCC(C)(C)CC2)c1 — lower, -12%
- CC[C@@H](CC#N)NC(=O)c1ccc(F)cc1NC(C)=O — lower, -11%
- O=C(COCc1ccccc1Cl)N1CCC[C@H]1c1ccncc1 — lower, -4%
- CNc1nc(C)cc(C(=O)NC2CC3CC3C2)n1 (stereo not given) — higher, 3%
- C[C@H]1OCC(=O)N(Cc2ccccc2)[C@@H]1c1nc(-c2nnc[nH]2)no1 — lower, -8%
- COC1CCC(N(C)C(=O)c2coc(C3CCOCC3)n2)CC1 (stereo not given) — lower, -23%
- Cc1cccc(-n2ncnc2CNC(=O)N(C)C)n1 — lower, -9%
- COc1cc(OC)c(NC(=O)CN2C[C@H]3CCN(C)[C@H]3C2)cc1Cl — lower, -2%
- COc1cc([C@H]2CC(=O)Nc3c2cnn3Cc2ccco2)c(OC)c2c1OCCO2 — higher, 9%
- CCc1nc(C)c(C(=O)NCc2ccc(Cl)s2)o1 — lower, -10%
- Cn1cc(Cl)cc1C(=O)N1CC2(CCC2)[C@H]1c1ccco1 — lower, -6%
- CCCOCC(=O)N1CCC(c2nnc(Cn3ccnc3C)n2C)CC1 — the same, 2%
- CC(=O)c1ccc(F)c(-c2cc(C)cc3c2O[C@@H](CNC(=O)Cn2nc(C)nc2C)C3)c1 — higher, 5%
- COCCN1C(=O)CC(CC(=O)N2CCN(C)C[C@@H]2C(C)C)(c2cccc(OC)c2)C1=O (stereo not given in full) — lower, -4%
- O=C(CCc1c[nH]c2ccccc12)Nc1nc[nH]n1 — lower, -6%
- C=CCN=C(NCCNC(=O)C(C)C)NCc1ccccc1 — higher, 3%
- Cc1ccc(OCC2c3ccsc3CCN2C(=O)CN(CC2CCCO2)C(=O)c2ccccc2)c(C)c1 (stereo not given) — lower, -9%
- COc1ccccc1-n1c(=O)n(Cc2ccccc2)c(=O)c2c1ncn2Cc1cccc(F)c1 — lower, 0%
- O=C(Cn1ncccc1=O)N1CCN(c2ccc(-c3ccco3)nn2)CC1 — lower, -16%
- COc1ccc(N2CCN(C(=O)C3OC(C)CC3C)CC2)nc1 (stereo not given) — lower, -8%
- Cc1nc(C(=O)N(C)C)ccc1C(=O)O[C@@H](C)c1cccc(F)c1 — lower, -6%
- Cc1c(C)n(Cc2ccccc2)c2ccc(C(=O)NC3CCN(Cc4ccccc4)CC3)cc12 — higher, 4%
- Cc1cc(CNC(=O)c2ccn(C(F)F)n2)no1 — lower, -8%
- COCCc1ccc(OS(=O)(=O)c2ccc3c(c2)CCC(=O)N3)cc1 — lower, -15%
- CS(=O)(=O)c1cnc2nc3ccccc3n2c1-c1ccccc1 — lower, -16%
- CCOC(=O)C(NC(=O)c1cnn(C)c1)C(=O)OCC — lower, -6%
- Cc1ccsc1C(=O)N[C@@H](CCO)C(C)(C)C — lower, -6%
- CCn1ccc2oc(C)c(C(=O)NC3CCN(Cc4ccccc4)CC3)c2c1=O — lower, -4%
- O=C(Nc1nc(-c2cccc3ccccc23)cs1)c1cccc(F)c1 — lower, -7%
- Cn1ncnc1C1(O)CCN(C(=O)OCC2CCCCC2)CC1 — lower, -6%
- CN1CCOC(CNCC(O)c2ccc(Br)cc2)C1 (stereo not given) — lower, -5%
- COCc1sccc1C(=O)N[C@@](C)(Cc1ccccc1)C1CC1 — lower, -20%
- Cc1nn(C2c3ccccc3Oc3ccccc32)c(=S)s1 — lower, 0%
- CN=C(NCc1ccnn1C)N1CCc2ccccc2C1 — higher, 3%
- Cc1cc(NS(=O)(=O)c2cccs2)n(-c2ccncc2)n1 — higher, 37%
- Cc1cc(C(=O)NC[C@]2(O)CCCc3occc32)no1 — higher, 14%
- O=C(NCCN1CC2CCC(C1)O2)c1nnc(-c2ccc(F)cn2)o1 — lower, -3%
- CC(C)(O)CNC(=O)Cc1ccc(F)cc1 — lower, -7%
- CCN(CCN1CCCC1)Cc1cccc2ncccc12 — higher, 12%
- C=C1CCC(C(=O)N2CCO[C@H]3CCC[C@H]32)CC1 — higher, 5%
- CC(C)(C)n1cc([C@H]2N(C(=O)c3cncc(Cl)c3)CC23CCOCC3)cn1 — lower, -17%
- N#Cc1c(N)cccc1OC(F)(F)F — lower, -8%
- O=C(NCCN1C(=O)CCC1=O)c1csc(-c2cccs2)n1 — lower, -22%
- CCCn1nc(C)cc1CN(C)C(=O)C[C@H]1CCc2nn(C)c(=O)n2CC1 — lower, -3%
- C[C@@]1(C(=O)NCc2noc(C(N)=O)n2)CCCCO1 — lower, -1%
- C[C@@H]1Oc2ccc(C(=O)C3CCN(Cc4cnc(C5CC5)o4)CC3)cc2NC1=O — lower, -8%
- CNC(=O)Cc1noc(CC2CCCCCC2)n1 — lower, -6%
- CCCn1nc(C2CCN(C(=O)OC(C)(C)C)CC2)c2c1CCOC2 — lower, -4%
- Cc1nc2ccc(N[C@@H](C)c3ccncc3F)cc2s1 — higher, 6%
- O=C(Nc1cccc(Oc2c(F)c(F)c(-c3c(F)c(F)c(Oc4cccc(NC(=O)c5ccccc5)c4)c(F)c3F)c(F)c2F)c1)c1ccccc1 — higher, 36%

Point of comparison: `CS(=O)(=O)c1cnc2nc3ccccc3n2c1-c1ccccc1`, Z score 2.14. Against it:
- CCOC(=O)C1(C[C@H]2CCCCO2)CCN(S(=O)(=O)c2ccc(C)cc2C)CC1 — higher, 3.58
- CCCN(CCC)S(=O)(=O)c1cccs1 — lower, -1.83
- Cc1cccc(-c2ccc(C(=O)NCc3nncn3C)c(=O)[nH]2)c1 — lower, -0.24
- Cc1noc2ncnc(N3Cc4ccccc4[C@@H](O)C3)c12 — lower, 0.48
- C[C@@H](C(=O)NC1CCCC1)N(C)Cc1ccc2c(c1)OCCO2 — lower, -0.15
- Cc1cncc(NC(=O)C(=O)NCC2CCC(C)(C)CC2)c1 — lower, 1.21
- CC[C@@H](CC#N)NC(=O)c1ccc(F)cc1NC(C)=O — lower, 1.52
- O=C(COCc1ccccc1Cl)N1CCC[C@H]1c1ccncc1 — lower, 0.49
- CNc1nc(C)cc(C(=O)NC2CC3CC3C2)n1 (stereo not given) — lower, -0.38
- C[C@H]1OCC(=O)N(Cc2ccccc2)[C@@H]1c1nc(-c2nnc[nH]2)no1 — lower, 1.12
- COC1CCC(N(C)C(=O)c2coc(C3CCOCC3)n2)CC1 (stereo not given) — higher, 3.51
- Cc1cccc(-n2ncnc2CNC(=O)N(C)C)n1 — lower, 1.1
- COc1cc(OC)c(NC(=O)CN2C[C@H]3CCN(C)[C@H]3C2)cc1Cl — lower, 0.38
- COc1cc([C@H]2CC(=O)Nc3c2cnn3Cc2ccco2)c(OC)c2c1OCCO2 — lower, -1.07
- CCc1nc(C)c(C(=O)NCc2ccc(Cl)s2)o1 — lower, 1.23
- Cn1cc(Cl)cc1C(=O)N1CC2(CCC2)[C@H]1c1ccco1 — lower, 1.16
- CCCOCC(=O)N1CCC(c2nnc(Cn3ccnc3C)n2C)CC1 — lower, -0.25
- CC(=O)c1ccc(F)c(-c2cc(C)cc3c2O[C@@H](CNC(=O)Cn2nc(C)nc2C)C3)c1 — lower, -0.85
- COCCN1C(=O)CC(CC(=O)N2CCN(C)C[C@@H]2C(C)C)(c2cccc(OC)c2)C1=O (stereo not given in full) — lower, 0.7
- O=C(CCc1c[nH]c2ccccc12)Nc1nc[nH]n1 — lower, 0.83
- C=CCN=C(NCCNC(=O)C(C)C)NCc1ccccc1 — lower, -0.54
- Cc1ccc(OCC2c3ccsc3CCN2C(=O)CN(CC2CCCO2)C(=O)c2ccccc2)c(C)c1 (stereo not given) — lower, 1.1
- COc1ccccc1-n1c(=O)n(Cc2ccccc2)c(=O)c2c1ncn2Cc1cccc(F)c1 — lower, 0.02
- O=C(Cn1ncccc1=O)N1CCN(c2ccc(-c3ccco3)nn2)CC1 — higher, 2.41
- COc1ccc(N2CCN(C(=O)C3OC(C)CC3C)CC2)nc1 (stereo not given) — lower, 1.31
- Cc1nc(C(=O)N(C)C)ccc1C(=O)O[C@@H](C)c1cccc(F)c1 — lower, 0.83
- Cc1c(C)n(Cc2ccccc2)c2ccc(C(=O)NC3CCN(Cc4ccccc4)CC3)cc12 — lower, -0.54
- Cc1cc(CNC(=O)c2ccn(C(F)F)n2)no1 — lower, 1.43
- COCCc1ccc(OS(=O)(=O)c2ccc3c(c2)CCC(=O)N3)cc1 — higher, 2.79
- CCOC(=O)C(NC(=O)c1cnn(C)c1)C(=O)OCC — lower, 0.89
- Cc1ccsc1C(=O)N[C@@H](CCO)C(C)(C)C — lower, 1.1
- CCn1ccc2oc(C)c(C(=O)NC3CCN(Cc4ccccc4)CC3)c2c1=O — lower, 0.6
- O=C(Nc1nc(-c2cccc3ccccc23)cs1)c1cccc(F)c1 — lower, 1.24
- Cn1ncnc1C1(O)CCN(C(=O)OCC2CCCCC2)CC1 — lower, 0.98
- CN1CCOC(CNCC(O)c2ccc(Br)cc2)C1 (stereo not given) — lower, 1.06
- COCc1sccc1C(=O)N[C@@](C)(Cc1ccccc1)C1CC1 — higher, 2.87
- Cc1nn(C2c3ccccc3Oc3ccccc32)c(=S)s1 — lower, 0.09
- CN=C(NCc1ccnn1C)N1CCc2ccccc2C1 — lower, -0.37
- Cc1cc(NS(=O)(=O)c2cccs2)n(-c2ccncc2)n1 — lower, -4.23
- Cc1cc(C(=O)NC[C@]2(O)CCCc3occc32)no1 — lower, -1.79
- O=C(NCCN1CC2CCC(C1)O2)c1nnc(-c2ccc(F)cn2)o1 — lower, 0.32
- CC(C)(O)CNC(=O)Cc1ccc(F)cc1 — lower, 0.86
- CCN(CCN1CCCC1)Cc1cccc2ncccc12 — lower, -2.2
- C=C1CCC(C(=O)N2CCO[C@H]3CCC[C@H]32)CC1 — lower, -0.65
- CC(C)(C)n1cc([C@H]2N(C(=O)c3cncc(Cl)c3)CC23CCOCC3)cn1 — higher, 2.81
- N#Cc1c(N)cccc1OC(F)(F)F — lower, 1.25
- O=C(NCCN1C(=O)CCC1=O)c1csc(-c2cccs2)n1 — lower, 2.05
- CCCn1nc(C)cc1CN(C)C(=O)C[C@H]1CCc2nn(C)c(=O)n2CC1 — lower, 0.46
- C[C@@]1(C(=O)NCc2noc(C(N)=O)n2)CCCCO1 — lower, 0.21
- C[C@@H]1Oc2ccc(C(=O)C3CCN(Cc4cnc(C5CC5)o4)CC3)cc2NC1=O — lower, 1.57
- CNC(=O)Cc1noc(CC2CCCCCC2)n1 — lower, 0.65
- CCCn1nc(C2CCN(C(=O)OC(C)(C)C)CC2)c2c1CCOC2 — lower, 0.87
- Cc1nc2ccc(N[C@@H](C)c3ccncc3F)cc2s1 — lower, -0.81
- O=C(Nc1cccc(Oc2c(F)c(F)c(-c3c(F)c(F)c(Oc4cccc(NC(=O)c5ccccc5)c4)c(F)c3F)c(F)c2F)c1)c1ccccc1 — lower, -4.6
